# Test results published in PubChem BioAssay AID463173 (ICCB-Longwood Screening Facility, Harvard Medical School, 2010).
# In all, about 52,000 compounds went through this assay and about 1,700 (3.3%) were called active. No stated cut-off is given here; in the data, active means survival mostly below about 52% (no sharp cut-off); inactive means mostly above about 56%. The list shows a part of the results.
# Tested on: Wild type
# Assay: S. aureus survival, RN4220 and DeltatarO strains – OD600, teichoic acid synthesis inhibitors, primary screen (AID 463173)
# Settings: S. aureus RN4220 wild type/DeltatarO growth, OD600, 18 h, hits give low values, screened at 18.75 µg/mL (by protocol)
row,Compound,survival
1,Cc1c(NC(=O)CN2C(=O)c3cccc4cccc2c34)c(=O)n(-c2ccccc2)n1C,inactive: 104%
2,CC(C)Cn1c(N2CCN(C(=O)Nc3ccc(Cl)cc3)CC2)nc2ccccc21,inactive: 99%
3,Cc1cccn2c(=O)c(C(=O)NCCc3ccc(Cl)cc3)cnc12,inactive: 77%
4,CC(=O)c1ccc(NC(=O)C2CCC(CNS(=O)(=O)c3cccc4nsnc34)CC2)cc1 (configuration not stated),inactive: 127%
5,Cc1ccc(C(=O)NCc2nnnn2-c2ccc(C)c(C)c2)cc1,inactive: 82%
6,CCOC(=O)c1ccc(NC(=O)CSc2nnc(CNc3ccc(C)cc3C)n2Cc2ccco2)cc1,inactive: 123%
7,Cc1ccc(-c2nnc(Nc3ccc(Br)cc3)c3ccccc23)cc1S(=O)(=O)NCc1nc2ccccc2[nH]1,inactive: 73%
8,CC(C)OC(=O)CSc1nnc(CNc2ccc(F)cc2)n1C1CCCCC1,inactive: 108%
9,Cc1ccccc1CNC(=O)c1ccc(CN2CC(=O)N3CCCCC3C2=O)cc1 (configuration not stated),inactive: 120%
10,CCc1nnc2c3ccccc3nc(N3CCN(c4cc(C)ccc4C)CC3)n12,inactive: 102%
11,N#Cc1ccc(NC(=O)c2nc3ncccn3n2)cc1,inactive: 106%
12,COc1ccc(N2CCN(S(=O)(=O)CCNC(=O)c3c(F)cccc3Cl)CC2)cc1,inactive: 80%
13,CC(=O)Nc1cc(C(=O)Nc2ccc3c(c2)N(C)C(=O)c2ccccc2S3)ccc1C,inactive: 71%
14,Cc1ccccc1CN1C(=O)c2ccccc2S(=O)c2ccc(C(=O)NCc3ccc4c(c3)OCO4)cc21 (configuration not stated),inactive: 87%
15,COc1cccc(CNC(=O)CCC(=O)N2CC(C)Sc3ccccc32)c1 (configuration not stated),inactive: 79%
16,COc1ccc(CNC(=O)C(=O)Nc2cc(Cl)ccc2OC)cc1,inactive: 158%
17,Cc1ccc(S(=O)(=O)c2nnn3c2nc(N2CCC(C(N)=O)CC2)c2cc(Cl)ccc23)cc1C,inactive: 77%
18,Cc1ccc(NS(=O)(=O)c2c(C)nc3sc(C)cn3c2=O)c(C)c1,inactive: 87%
19,COc1ccc2[nH]c(=O)c(CN(Cc3cccnc3)C(=O)Nc3ccccc3)cc2c1,inactive: 93%
20,Cc1nc2c(c(C)nn2C(C)(C)C)c(C)c1CCC(=O)Nc1ccc(Br)cc1Br,inactive: 67%
21,CS(=O)(=O)N1CCC(C(=O)NCC2CCCO2)CC1 (configuration not stated),inactive: 107%
22,Cc1ccc(NC(=O)[C@@H](c2ccccc2)N2Cc3ccccc3C2=O)cc1F,inactive: 36%

row,Compound,survival
1,CCC(=O)Nc1cc2nn(-c3ccc(C)cc3)nc2cc1C,inactive: 73%
2,CCCc1nn2c(=O)cc(COC(=O)c3ccco3)nc2s1,inactive: 73%
3,COc1ccc(CCNC(=O)Cn2c(=O)c3cccn3c3ccccc32)cc1OC,inactive: 85%
4,COc1cccc(-c2noc(C3CCCN(C(=O)Cc4ccccc4)C3)n2)c1 (configuration not stated),inactive: 113%
5,CCCCOc1ccccc1C1CC(=O)Nc2cc(OC)c(OC)cc21 (configuration not stated),inactive: 80%
6,CC(=O)Nc1c(C)nn(-c2ccccc2)c1N1CCC(C(=O)Nc2cccc(C(F)(F)F)c2)CC1,inactive: 64%
7,CCOC(=O)Cn1c(=O)n(CC2CCCO2)c2nc(-c3ccc(CC)cc3)nc(C(N)=O)c21 (configuration not stated),inactive: 81%
8,O=C(CSc1ncc2c(n1)-c1ccc(Cl)cc1N(Cc1ccccc1)S2(=O)=O)Nc1ccccc1C(F)(F)F,inactive: 82%
9,Cc1c(C(=O)NCc2ccc(F)cc2)sc2nc(-c3ccc(F)cc3)cn12,inactive: 74%
10,CC1(C)Cc2nc(N)c(C#N)cc2CO1,inactive: 109%
11,CCOc1ccc(NC(=O)CN2CCSc3ccc(S(=O)(=O)N4CCCC4)cc32)cc1,inactive: 67%
12,CCn1cc(S(=O)(=O)c2ccc(C)cc2C)c(=O)c2cc(F)c(N3CCCCC3)cc21,inactive: 77%
13,COC(=O)c1c(NC(=O)/C=C/c2ccc(OC)c(OC)c2)sc2c1CCC2,inactive: 76%
14,Cc1cc(C)cc(N(CC(=O)NCc2ccccc2Cl)S(=O)(=O)c2c(C)[nH]c(=O)[nH]c2=O)c1,inactive: 132%
15,Cc1noc(Cn2c(=O)c3ccccc3n(CC(=O)Nc3ccc(C(C)C)cc3)c2=O)n1,inactive: 115%
16,CN(C)C(=O)Cn1c(SCC(=O)NC2CCCCC2)nc2ccccc21,inactive: 107%
17,CCN(CC)c1ccc(NC(=O)CN2C(=O)c3cccnc3Oc3ccc(Cl)cc32)c(C)c1,inactive: 99%
18,COCCNC(=O)CSc1nnc2[nH]c(=O)cc(C)n12,inactive: 66%
19,O=C(NCc1ccccc1)c1ccc2c(c1)nc1n2CCOC1,inactive: 82%
20,CCN(CC)CCCNC(=O)CN1C(=O)COc2ccc(S(=O)(=O)N3CCC(C)CC3)cc21,inactive: 79%
21,CC(Nc1oc(-c2ccc(COc3ccc(Cl)cc3)o2)nc1C#N)c1ccccc1 (configuration not stated),inactive: 93%
22,CCc1ccccc1NS(=O)(=O)c1cc(Br)cc2c1N(C(=O)C1CC1)CC2,inactive: 69%

row,Compound,survival
1,CCc1cccc(NS(=O)(=O)c2cc(-c3cnc(C)o3)ccc2OC)c1,inactive: 77%
2,CCOC(=O)Cn1c(=O)n(CC2CCCO2)c2nc(-c3c(F)cccc3Cl)nc(C(N)=O)c21 (configuration not stated),inactive: 82%
3,COc1ccc(C(=O)Nc2nc3n(n2)C(c2ccc(F)cc2)C=C(c2ccc(Cl)cc2)N3)cc1 (configuration not stated),inactive: 73%
4,CCn1c(=O)c2sccc2n2c(CCCC(=O)Nc3ccc(OC)c(OC)c3)nnc12,inactive: 99%
5,Cc1c(C(=O)N(C)C)sc2c1c(=O)n(-c1ccc(Cl)c(Cl)c1)c(=O)n2CC(=O)Nc1ccc(Br)cc1F,inactive: 148%
6,CCOC(=O)c1ccc(NC(=O)c2cc3c([nH]c2=O)CC(c2ccccc2)CC3=O)cc1 (configuration not stated),inactive: 76%
7,CC(c1ccccc1F)n1cc(C(=O)NCC2CCCO2)nn1 (configuration not stated),inactive: 102%
8,O=C(Nc1ccccc1)C1CCCN1C(=O)Nc1ccc(F)cc1 (configuration not stated),inactive: 112%
9,COc1cccc(-c2n[nH]c3c2C(c2ccccn2)N(C)C3=O)c1 (configuration not stated),inactive: 83%
10,O=C(CC1N=C2c3ccccc3N=C(SCC(=O)Nc3ccc(F)cc3)N2C1=O)NCc1ccc2c(c1)OCO2 (configuration not stated),inactive: 80%
11,Cc1cccc(NC(=O)Cn2cc(S(=O)(=O)Cc3ccccc3Cl)c3ccccc32)c1,inactive: 83%
12,COc1ccc(-n2cc(-c3ccc4c(c3)OCO4)n(CC(=O)Nc3cccc(C)c3)c2=O)cc1,inactive: 80%
13,CCCCC1CCC(CCCC(C)CCC(=O)O)CC1 (configuration not stated),active: -5%
14,Cc1ccccc1Cn1c(SCc2ccc(C(=O)NCCc3ccccc3)cc2)nc2ccncc21,inactive: 98%
15,Cc1cc(C)n(C(C)CC(=O)Nc2ccc(C)c(F)c2)n1 (configuration not stated),inactive: 85%
16,CSc1ncc(Cl)c(C(=O)N(Cc2ccc(C(C)C)cc2)C2CCS(=O)(=O)C2)n1 (configuration not stated),inactive: 81%
17,CC(C)CCNc1ncnc2c1cnn2-c1cccc(Cl)c1,inactive: 101%
18,Cc1ccccc1C(c1c(C)n(C)n(-c2ccccc2)c1=O)c1c(C)n(C)n(-c2ccccc2)c1=O,inactive: 81%
19,O=C(Cc1ccc(Cl)cc1)Nc1ccc2nn(-c3ccccc3)nc2c1,inactive: 95%
20,Cc1ccccc1OCc1nnc(SCC(=O)N(Cc2ccccc2)C(C)(C)C)o1,inactive: 129%
21,O=C(Oc1c(Cl)cc(Cl)c2cccnc12)N1CCCCCC1,inactive: 109%
22,Cc1ccc(-n2c(SCC(=O)Nc3c(C)cccc3C)nc(O)c(C)c2=O)cc1,inactive: 70%

row,Compound,survival
1,CCC1CN(C(=O)N2CCC(C(=O)NCc3ccco3)CC2)c2ccccc2O1 (configuration not stated),inactive: 86%
2,COCCNC(=O)C(=O)NCC(c1cccnc1)N1CCN(c2ccccc2)CC1 (configuration not stated),inactive: 82%
3,CCOc1ccccc1NC(=O)CN1C(=O)C2(SCC(=O)N2c2ccc(C)cc2)c2ccccc21 (configuration not stated),inactive: 74%
4,CC(=O)c1cccc(NC(=O)N2CCC(CN3CCCCC3)CC2)c1,inactive: 71%
5,CC(C)c1ccc(NC(=O)Cn2c(=O)n(Cc3nc(-c4ccccc4)no3)c(=O)c3cc4c(cc32)OCO4)cc1,inactive: 81%
6,CCOc1ccc2c(c1)c(=O)c(C(=O)c1ccc(C)cc1)cn2Cc1ccccc1OC,inactive: 88%
7,CCS(=O)(=O)c1ncc(Cl)c(C(=O)N(Cc2ccccc2)c2ccc(OC)cc2)n1,inactive: 36%
8,Cc1ccc(-n2ncc3c(=O)n(Cc4ccccc4C)cnc32)cc1C,inactive: 115%
9,Cc1cc(C)c(CN2C(=O)c3ccccc3S(=O)(=O)c3ccc(C(=O)OCC4CCCO4)cc32)c(C)c1 (configuration not stated),inactive: 68%
10,CCCN(Cc1cccs1)C(=O)Nc1ccc(F)c(Cl)c1,inactive: 84%
11,COc1cc(Cl)c(NC(=O)C(NS(=O)(=O)c2cccs2)C(C)C)c(OC)c1 (configuration not stated),inactive: 71%
12,Cc1ccc(Nc2nc3nonc3n3cnnc23)cc1Cl,inactive: 88%
13,COc1ccc(OC)c(Nc2c3c(nc4ccccc24)CCC3)c1,inactive: 88%
14,CCc1ccc(NC(=O)c2ccc(F)c(S(=O)(=O)NCCc3ccc(OC)c(OC)c3)c2)cc1,inactive: 81%
15,COc1cccc(Nc2sc(C(=O)c3ccc(Cl)cc3)c(N)c2C(=O)NCCc2ccc(OC)c(OC)c2)c1,inactive: 75%
16,CS(=O)(=O)N1CCc2cc(C(=O)Nc3ccc(S(N)(=O)=O)cc3)ccc21,inactive: 91%
17,O=C1c2ccccc2C(=O)N1c1ccccc1S(=O)C(F)(F)F (configuration not stated),inactive: 111%
18,Cc1cccc(C(=O)OCc2cc(=O)n3nc(-c4cccs4)sc3n2)c1,inactive: 73%
19,CCCSc1nnc2n(-c3cccc(C)c3)c(=O)c3c4c(sc3n12)CCCC4,active: 2%
20,Cc1ccc(C)c(NC(=O)Cn2c(=O)n(Cc3ccc4c(c3)OCO4)c(=O)c3ccccc32)c1,inactive: 116%
21,CC(C)(C)OC(=O)N1CCC(c2c(C(=O)N3CCCCC3)cnn2-c2ccc(F)cc2F)CC1,inactive: 63%
